Measured values taken from the supplement of paper PMC3334620.
In all, about 33,000 sequences were measured (“E-score (-0.5 to 0.5)”: median about -0.021, highest 2% from about 0.32 on). The list shows a part of the results.

These sequences were tested against T1, Zap1 (UniProt P47043) (assay: PBM E-score (8-mer binding enrichment) (E-score (-0.5 to 0.5)); higher = stronger / more preferred TF binding; most listed sequences are background and not binding sites). Conditions: protein concentration: 200 nM; construct: GST-full length.
T1 sequence: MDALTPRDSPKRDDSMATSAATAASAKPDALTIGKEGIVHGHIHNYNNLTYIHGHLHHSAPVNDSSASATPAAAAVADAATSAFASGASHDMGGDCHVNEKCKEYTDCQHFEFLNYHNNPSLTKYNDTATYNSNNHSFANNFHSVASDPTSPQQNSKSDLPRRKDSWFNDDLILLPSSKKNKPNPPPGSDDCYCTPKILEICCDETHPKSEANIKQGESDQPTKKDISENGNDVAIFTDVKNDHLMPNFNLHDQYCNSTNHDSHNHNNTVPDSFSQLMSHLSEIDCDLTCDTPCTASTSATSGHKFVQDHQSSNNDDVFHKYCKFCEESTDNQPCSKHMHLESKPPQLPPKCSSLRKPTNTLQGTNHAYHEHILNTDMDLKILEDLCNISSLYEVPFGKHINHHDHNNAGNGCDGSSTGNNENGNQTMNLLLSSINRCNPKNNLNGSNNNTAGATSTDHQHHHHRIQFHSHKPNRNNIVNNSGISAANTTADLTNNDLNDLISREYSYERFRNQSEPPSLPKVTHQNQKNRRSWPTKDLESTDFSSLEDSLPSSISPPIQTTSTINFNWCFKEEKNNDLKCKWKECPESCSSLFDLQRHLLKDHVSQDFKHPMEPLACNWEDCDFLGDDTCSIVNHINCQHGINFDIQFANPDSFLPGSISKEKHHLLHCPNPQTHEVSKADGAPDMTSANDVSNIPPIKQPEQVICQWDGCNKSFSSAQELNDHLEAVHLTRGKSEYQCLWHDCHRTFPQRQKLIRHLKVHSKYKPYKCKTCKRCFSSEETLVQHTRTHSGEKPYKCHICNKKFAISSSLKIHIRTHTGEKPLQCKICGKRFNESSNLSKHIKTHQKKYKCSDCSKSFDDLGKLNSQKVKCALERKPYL
Summary of the method: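 GST-tagged yeast TFs (full-length or DNA-binding domain) were made by PURExpress in vitro transcription/translation and applied at about 100-200 nM to universal all-10-mer Agilent arrays. The arrays were made double-stranded by primer extension, on fresh or once-stripped slides. Bound protein was detected with fluorescent anti-GST, and scans were normalised with masliner. Each ungapped eight-base word, pooled with its reverse complement, received an E-score (modified Wilcoxon-Mann-Whitney statistic) from the Universal PBM Analysis Suite.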
With GAAGCCTC the “PBM E-score” value was -0.16. TGAGTCCA was tested, and the “PBM E-score” value was -0.00518. With AATGATGT the “PBM E-score” value was 0.022. For GCCTTACC, the “PBM E-score” value was 0.0234. For AGTTCCGG, the “PBM E-score” value was -0.0478. For AACTACAA, the “PBM E-score” value was 0.226. GGTGCGGA was tested, and the “PBM E-score” value was 0.00841. For ATGTAACC, the “PBM E-score” value was 0.395. In the case of CAGACAAC, the “PBM E-score” value is reported as 0.0296. In the case of CTCTTTCC, the “PBM E-score” value is reported as -0.0799. For ACACGGAG, the “PBM E-score” value was -0.162. With CCTACTGA the “PBM E-score” value was 0.0949. In the case of ACTCGGTG, the “PBM E-score” value is reported as -0.113. With ATAGCCTC the “PBM E-score” value was -0.196. With AAACTTGG the “PBM E-score” value was 0.124. With TGTCAACA the “PBM E-score” value was -0.0648. GGGTTTCA was tested, and the “PBM E-score” value was 0.103. GCCGGATA was tested, and the “PBM E-score” value was -0.106. For CGCGCTAC, the “PBM E-score” value was 0.115. GGTCCCGA was tested, and the “PBM E-score” value was -0.0811. With CAGCTTTA the “PBM E-score” value was 0.0154. AGCGCCTA was tested, and the “PBM E-score” value was -0.0979. With CGGGTGTC the “PBM E-score” value was 0.169. With ACTAGCCA the “PBM E-score” value was -0.0097. AAGACTCC was tested, and the “PBM E-score” value was -0.191. With TAAGCCCA the “PBM E-score” value was 0.0636. With AACGTCCC the “PBM E-score” value was -0.133. CCAGCTAC was tested, and the “PBM E-score” value was -0.0949. In the case of CGATCGCC, the “PBM E-score” value is reported as -0.0746. In the case of CACGCTAC, the “PBM E-score” value is reported as -0.151. AAAGGAGC was tested, and the “PBM E-score” value was -0.271. In the case of GAAGTACA, the “PBM E-score” value is reported as -0.0897. GGGTCGGA was tested, and the “PBM E-score” value was -0.0652. For ACTGGTGG, the “PBM E-score” value was -0.0589. In the case of GAACCTCA, the “PBM E-score” value is reported as 0.189. With CGAGTGTC the “PBM E-score” value was -0.0163. With GTGGACAA the “PBM E-score” value was 0.126. AAGGGTCC was tested, and the “PBM E-score” value was 0.274. CTATTACA was tested, and the “PBM E-score” value was 0.046. For GGACACCC, the “PBM E-score” value was 0.212. For GCAAGCGC, the “PBM E-score” value was -0.276. With ACGAAAGT the “PBM E-score” value was 0.11. With AAATGAGT the “PBM E-score” value was 0.129. With AACCAATC the “PBM E-score” value was 0.26. TGGACCCA was tested, and the “PBM E-score” value was -0.0626. In the case of AAGCGAGC, the “PBM E-score” value is reported as -0.0792. With CATGACAG the “PBM E-score” value was 0.0769. With ATACATAG the “PBM E-score” value was -0.113. AACTTCAA was tested, and the “PBM E-score” value was 0.101. CTACGCGA was tested, and the “PBM E-score” value was 0.0302. For ATAAAACC, the “PBM E-score” value was 0.211. In the case of GTGAAATA, the “PBM E-score” value is reported as 0.158. With ATAAGAGA the “PBM E-score” value was 0.0121. For GAACCTGA, the “PBM E-score” value was 0.0822. In the case of CAGCTTAA, the “PBM E-score” value is reported as -0.0577. ACCTTCGA was tested, and the “PBM E-score” value was 0.166. In the case of GGACAACA, the “PBM E-score” value is reported as -0.0675. In the case of ACACGACT, the “PBM E-score” value is reported as -0.153. With CATCGCAA the “PBM E-score” value was -0.119. In the case of TCACGGGA, the “PBM E-score” value is reported as 0.0405. With AGATACAT the “PBM E-score” value was -0.0864. For TGACAAAA, the “PBM E-score” value was 0.152. TGCGCCCA was tested, and the “PBM E-score” value was -0.235. With CCCGTCAG the “PBM E-score” value was -0.0426. AACTGTGA was tested, and the “PBM E-score” value was 0.108. For GGAAAGTA, the “PBM E-score” value was 0.0173. In the case of ACCCCTCA, the “PBM E-score” value is reported as 0.267. With TCGCGGCA the “PBM E-score” value was -0.122. For CCTACGGC, the “PBM E-score” value was -0.277. In the case of CACGACTG, the “PBM E-score” value is reported as -0.188. ATGCGATC was tested, and the “PBM E-score” value was -0.0635. For AGGACCAT, the “PBM E-score” value was -0.0487. In the case of GGAGGTCA, the “PBM E-score” value is reported as 0.136. CATTAATC was tested, and the “PBM E-score” value was -0.00425. In the case of AGTCCTAC, the “PBM E-score” value is reported as -0.0172. AAACATAC was tested, and the “PBM E-score” value was 0.0829. With GATCATAA the “PBM E-score” value was 0.149. For CGAGCTAC, the “PBM E-score” value was -0.163. In the case of TACGGTCA, the “PBM E-score” value is reported as 0.193.
